The whole screen tested about 310,000 compounds, of which about 18,000 (5.8%) were called active. Inconclusive means that the source gave no clear call. Such entries were picked first, then a sample of the others. Calls come from the whole dose curve; as a rule, active = well fitted inhibition curve with a large enough effect; inconclusive = small, poorly fitted or top-dose-only effect, or another doubt; inactive = no such curve, though single readings can be large or run the other way. Potencies of inconclusive entries are left out as doubtful fits.
experiment: Primary qHTS for delayed death inhibitors of the malarial parasite plastid, 48 hour incubation; conditions: P. falciparum luciferase growth in erythrocytes; series mostly up to 28.7 µM; activity change, negative = inhibition: at the top concentration
Summary of the method: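 First compound was added to culture medium, then infected red cells at 0.1% parasitemia and 2% hematocrit (final). After incubation at 37 C under 5% CO2, luciferase detection reagent was dispensed and light output recorded.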
% is set by controls: 0 for no effect and ±100 for the full control effect; potency is the fitted concentration of half-maximal effect; tags give direction and shape of the fitted curve.

Row | SMILES | activity change, negative = inhibition | Potency
1 | FC(F)(F)c1ccc(CSc2ccccn2)cc1 | inactive: 19.4% | 
2 | Nc1nc2n(n1)C(c1cccc(Br)c1)CC(c1ccc(F)cc1)N2 (configuration not stated) |  | inconclusive [inhibitor, single point]
3 | CCCOP(=O)(c1ccc(N(C)C)cc1)C(O)c1c(Cl)cccc1Cl (configuration not stated) |  | inconclusive [inhibitor, single point]
4 | CCc1ccc(/C=N/n2c(C)cc(C)c(C#N)c2=O)cc1 |  | active: 9.28 µM
5 | Cc1c(NC(=O)COC(=O)Cc2ccc(F)cc2)c(=O)n(-c2ccccc2)n1C |  | inconclusive [inhibitor, single point]
6 | CCC1=[N+](CC(=O)c2ccc(C)cc2)CCn2cccc21 |  | inconclusive [inhibitor, partial curve, poor fit]
7 | O=C(COC(=O)/C=C/c1ccccc1)NC(=O)NCc1ccccc1 | inactive: 4.63% | 
8 | COc1ccccc1OCCNC(=O)c1c(-c2ccccc2Cl)noc1C |  | inconclusive [inhibitor, single point]
9 | CCN1Cc2c(/C=C/c3ccccc3)nc3ccc(OC)cc3c2N(c2cccc(Cl)c2)C1 |  | active: 2.08 µM
10 | Oc1ccc(Cl)cc1-c1cc(-c2ccco2)[nH]n1 |  | inconclusive [inhibitor, partial curve]
11 | COc1ccc(OCC(=O)NC2CCCc3ccccc32)cc1 (configuration not stated) | inactive: -11.3% | 
12 | CCN1CCCC1CNC(=O)c1cc2c(OC)c(OC)c(OC)cc2[nH]1 (configuration not stated) |  | inconclusive [inhibitor, single point]
13 | Cc1nc(Sc2ccccc2)c(C#N)cc1-c1ccccc1 |  | inconclusive [inhibitor, partial curve, poor fit]
14 | CCN(c1ccccc1)c1nc(C#N)nc(N(CC)c2ccccc2)n1 |  | inconclusive [inhibitor, partial curve]
15 | C/C(=N/NC(=S)Nc1ccccc1)c1ccc2c(c1)OCO2 |  | inconclusive [inhibitor, partial curve]
16 | COC(=O)C1=C(c2ccc(OCc3ccccc3)cc2)C[C@@H]2CC[C@H]1N2C(=O)NCCCc1ccccc1 |  | inconclusive [inhibitor, full curve, poor fit]
17 | Cc1ccc(N2C(=O)c3ccc(C(=O)N4CCN(c5ccc(C)c(C)c5)CC4)cc3C2=O)cc1 | inactive: 9.75% | 
18 | Cc1cccc(C)c1NC(=O)CN1CCN(CC(=O)NCC2(N3CCCCC3)CCCCC2)CC1 |  | inconclusive [inhibitor, single point]
19 | O=[N+]([O-])c1ccc2c(c1)N([O-])C1(CCCCC1)[N+]2=O |  | inconclusive [inhibitor, single point]
20 | Cc1cccc(N2CCN(CCCNC(=O)c3ccc(NC(=O)C4=CSCCO4)cc3)CC2C)c1 (configuration not stated) |  | inconclusive [inhibitor, partial curve]
21 | Cc1cccc(C2c3[nH]c4ccccc4c3CCN2C(=O)Cc2nc(-c3ccccc3)n[nH]2)n1 (configuration not stated) |  | active: 11.7 µM
22 | Cc1ccc2c(c1)c(C)c(C)n2CC(O)Cn1nc(C)c(Br)c1C (configuration not stated) |  | inconclusive [inhibitor, partial curve, poor fit]
23 | CC(C)c1c(C(=O)N/N=C/c2ccc(-c3ccccc3)cc2)nnn1-c1nonc1N | inactive: 13.7% | 

Row | SMILES | activity change, negative = inhibition | Potency
24 | CCc1cc(C=C(Cl)Cl)oc(=O)c1C |  | inconclusive [inhibitor, single point]
25 | CCc1nnc(NC(=O)CSc2nc3cc(OC)c(OC)cc3cc2C)s1 |  | inconclusive [inhibitor, single point]
26 | CCCn1nc(C(=O)Nc2ccc(S(=O)(=O)Nc3ncccn3)cc2)c2ccccc2c1=O |  | inconclusive [inhibitor, partial curve, poor fit]
27 | Cc1ccc(N(C)S(=O)(=O)c2cccc(C(=O)NCCCN3CCCC3=O)c2)cc1 |  | inconclusive [inhibitor, single point]
28 | O=C(CN1CCN(CCC(=O)Nc2ccccc2F)CC1)Nc1ccc(Cl)cc1 |  | inconclusive [inhibitor, full curve]
29 | COc1cc(CN/C(C)=C(\C#N)C(N)=O)cc(OC)c1OC | inactive: 21.2% | 
30 | CCOc1ccc(CCNC(=O)Cn2ncn3nc(-c4ccc(OC)cc4)cc3c2=O)cc1 | inactive: 53.4% | 
31 | O=C(CSc1ncc(-c2ccccc2)n1C1CCCC1)N1CCc2ccccc21 |  | inconclusive [inhibitor, partial curve, poor fit]
32 | CN(C)c1ncc(CN2CCC(C(=O)Nc3ccc(-n4cccn4)cc3)CC2)s1 |  | active: 2.62 µM
33 | CC(C)(C)N1CCC1C(N)=O (configuration not stated) | inactive: 2.78% | 
34 | CCc1cccc(C)c1NC(=O)c1ccccc1 |  | inconclusive [inhibitor, partial curve, poor fit]
35 | COc1ccc2oc(C(=O)N3CCN(C(c4ccccc4)c4ccccc4)CC3)c(C)c2c1 |  | active: 3.7 µM
36 | C=CCn1c2ccccc2c(=O)c2cc(C#CC[C@@H](C)O)ccc21 | inactive: 0% | 
37 | CCOC(=O)c1c(-c2ccc(Cl)cc2)csc1NC(=O)CNCc1ccco1 |  | inconclusive [inhibitor, partial curve]
38 | CCN(C(=O)COC(=O)c1ccc(COc2ccc3c(C)cc(=O)oc3c2)cc1)C1CCS(=O)(=O)C1 (configuration not stated) |  | inconclusive [inhibitor, partial curve, poor fit]
39 | CS(=O)(=O)N(CCc1ccccc1)CC(=O)N1CCN(c2ccccc2F)CC1 |  | inconclusive [inhibitor, single point]
40 | CNCCC1Sc2ccccc2Oc2ccccc21 (configuration not stated) |  | inconclusive [inhibitor, partial curve, poor fit]
41 | CCC(C)Nc1nc(N)c([N+](=O)[O-])c(NCc2ccccc2)n1 (configuration not stated) |  | inconclusive [inhibitor, partial curve, poor fit]
42 | COc1ccccc1NC(=O)NCCCCc1ccccc1 |  | inconclusive [inhibitor, single point]
43 | CCN1CCN(c2ccc([N+](=O)[O-])c(Sc3nc4ccccc4[nH]3)c2)CC1 |  | inconclusive [inhibitor, single point]
44 | COc1ccc(-n2c(SCC(=O)NCc3ccco3)nc3sc4c(c3c2=O)CCN(C)C4)cc1 |  | inconclusive [inhibitor, partial curve]
45 | Cc1ccccc1OCC(O)CNC1CCC(NCC(O)COc2ccccc2C)CC1 (configuration not stated) |  | active: 0.928 µM
46 | CC(C)(CN1CCNCC1)NS(=O)(=O)c1ccc(Cl)cc1 |  | active: 9.28 µM

Row | SMILES | activity change, negative = inhibition | Potency
47 | COc1ccccc1-c1ccc(/C=C2/C=C(C)OC2=O)o1 |  | inconclusive [inhibitor, single point]
48 | CCOC(=O)[C@@H]1[C@H]2COc3ccc(Br)cc3[C@@H]2N2C(=O)N(c3ccc(C)cc3)C(=O)[C@]12C |  | inconclusive [inhibitor, single point]
49 | COc1ccc(Cn2nnnc2CN(Cc2cc3cc(C)ccc3[nH]c2=O)C2CCCC2)cc1 |  | inconclusive [inhibitor, partial curve, poor fit]
50 | CC(C)(C)c1ccc(C(=O)Nc2ccc(S(N)(=O)=O)cc2)cc1 |  | inconclusive [inhibitor, single point]
51 | COC(=O)c1sc(SC)c(-c2ccon2)c1C | inactive: 25% | 
52 | COC(=O)C1=C(c2ccc(-c3ccccc3)c(F)c2)C[C@@H]2CC[C@H]1N2C(=O)NC(C)C |  | inconclusive [inhibitor, single point]
53 | O=C(Nc1nc(-c2cccnc2)cs1)c1ccccc1Cl |  | inconclusive [inhibitor, single point]
54 | O=C1c2oc3ccc(Cl)cc3c(=O)c2C(c2ccco2)N1CCN1CCOCC1 (configuration not stated) |  | active: 8.28 µM
55 | CC(=O)c1cccc(N(C(=O)CS(=O)CC(=O)Nc2ccc(F)cc2)C(C(=O)NC2CCCCC2)c2ccc(C)o2)c1 (configuration not stated) |  | inconclusive [inhibitor, partial curve]
56 | Cc1ccccc1OCCc1c(C)[nH]c(=S)[nH]c1=O | inactive: -3.98% | 
57 | CNCCOc1ccccc1OC(C)C | inactive: -3.94% | 
58 | COc1cccc(C2C3=C(CCCC3=O)Nc3nc(-c4cc(OC)c(OC)c(OC)c4)nn32)c1 (configuration not stated) |  | inconclusive [inhibitor, single point]
59 | COc1cc2c(cc1/C=C/C(=O)O)OC(C)C2 (configuration not stated) | inactive: 7.79% | 
60 | Cc1nn(CCC#N)c(NC(=O)c2ccccc2)c1P(=O)(Nc1ccc(Br)cc1)N1CCOCC1 (configuration not stated) |  | inconclusive [inhibitor, single point]
61 | c1ccc(Cn2ncc3c(N4CCN(C(c5ccccc5)c5ccccc5)CC4)ncnc32)cc1 |  | inconclusive [inhibitor, partial curve]
62 | COCCNC(=O)CN(C(=O)CCC(=O)Nc1ccccn1)c1ccc(OC)cc1 |  | inconclusive [inhibitor, single point]
63 | COc1ccccc1-c1nnc(SCC(=O)N2CCCCC2)o1 | inactive: -2.24% | 
64 | CCOc1ccc2c(c1)C(c1ccc(C)cc1)=NNC(c1ccc(OC)cc1)=N2 |  | inconclusive [inhibitor, single point]
65 | COc1ccc(Br)cc1CNC(=O)C1CCN(S(=O)(=O)N2CCC(C)CC2)CC1 |  | inconclusive [inhibitor, single point]
66 | COc1cc2c(cc1OC)CN(Cc1cc(=O)oc3c(C)c(C)ccc13)CC2 | inactive: -27.3% | 
67 | COCCCN1C(=O)C(=O)/C(=C(/O)c2ccc(S(=O)(=O)N3CCOCC3)cc2)C1c1ccc(Cl)cc1 (configuration not stated) | inactive: 4.61% | 

Reference: PubChem BioAssay AID504832 (National Center for Advancing Translational Sciences (NCATS), 2011)
